Assay results: PubChem BioAssay AID1508623 (National Center for Advancing Translational Sciences (NCATS), 2021)
Screen size: about 48,000 compounds; about 450 (0.94%) were called active. Not shown: some 19% with an inconclusive outcome. Calls come from the whole dose curve; as a rule, active = well fitted inhibition curve with a large enough effect; inconclusive = small, poorly fitted or top-dose-only effect; inactive = no such curve, though single readings can be large or run the other way. This is one part of the list.

Experiment: Primary qHTS for Identification of Small Molecule Inhibitors of Huntingtin Promoter Activity; note: nearly all actives have a fitted effect of over 50% in size
Details: HEK293 HTT promoter firefly luciferase reporter (activity 0% = vehicle and -100% = no light), 24 h; series mostly up to 57.5 µM; activity change, negative = inhibition: at the top concentration
How it was run: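 HEK293 Fluc reporter, 2,500 cells/well, 24 h pre-culture; cpds up to 57.5 uM final, 24 h 37 degrees C; Dual-Glo, 10 min RT; normalized vehicle = 0%, zero RLU = -100%.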

Activity change, negative = inhibition, inactive:
COc1cc(Cl)c(C)cc1NC(=O)Cn1ncc2c(=O)oc3ccccc3c21 -4.37%
CCC(C(=O)OC)n1cnc2c(cnn2-c2ccc(F)cc2)c1=O (stereo unspecified) -10.3%
CCCC(=O)O[C@]1(C(=O)CO)CC[C@H]2[C@@H]3CCC4=CC(=O)CC[C@]4(C)[C@H]3[C@@H](O)C[C@@]21C 2.78%
CCC(Sc1nc2nccnc2c(=O)n1Cc1ccc(F)cc1)C(=O)NC1CCCCC1 (stereo unspecified) -9.05%
CCc1cccc(NC(=O)C2CCC(CNS(=O)(=O)c3csc(C(N)=O)c3)CC2)c1 (stereo unspecified) -19.7%
CC(C)(C)OC(=O)N1CCC(c2c(C(=O)NCc3ccco3)cnn2-c2ccccc2)CC1 -10.5%
CCOc1ccc(S(=O)(=O)c2cn(Cc3ccccc3)c3ccc(OCC)cc3c2=O)cc1 -18.5%
Cc1cc(=O)n2nc(N3CCC(C(=O)NCc4ccccc4)CC3)sc2n1 -5.75%
Cc1ccc(NC(=O)Cn2cnc3nc4c(cc3c2=O)CCCC4)cc1Cl -3.48%
CCn1c(=O)cc(SCC(=O)NCc2ccccc2OC)c2ccccc21 -18.2%
COc1ccc2cc(C(=O)NCc3ccc4c(c3)CCN4C(=O)c3ccccc3)[nH]c2c1 -5.37%
Cc1cccc(C(=O)NC(=O)Nc2ccc(-c3cc(C(F)(F)F)nn3-c3ccccc3)cc2)c1 -20.1%
COc1ccc(C(=O)Nc2ccc(OCc3cc(=O)n4ccsc4n3)cc2)cc1OC 0.811%
Cc1cc(C)c2c(=O)cc(C(=O)Nc3ccc(S(=O)(=O)N(C)Cc4ccccc4)cc3)oc2c1 -15.5%
O=C(C1CCN(S(=O)(=O)c2cccc3nonc23)CC1)N1CCN(c2ccccc2F)CC1 -14.3%
Nc1nnc(SCC(=O)Nc2ccccc2)s1 15.7%
COc1cccc(NC(=O)Cn2c(=O)n(CC(=O)NCc3ccc(C)cc3)c(=O)c3sccc32)c1 -20.1%
Cc1ccc2nc(-c3c[nH]c4ccccc34)c(Nc3ccccc3C)n2c1 11%
Cc1cc(C)c(NC(=O)CN2C(=O)c3cccnc3Oc3ccc(C)cc32)c(C)c1 -22%
CCN1CCN(C(=O)Cn2ncc3c4ccccc4n(Cc4ccccc4)c3c2=O)CC1 4.02%
Cc1ccc(/C=C/C(=O)Nc2ccc(S(N)(=O)=O)cc2)o1 7.33%
Cn1cncc1[C@@](N)(c1ccc(Cl)cc1)c1ccc2c(c1)c(-c1cccc(Cl)c1)cc(=O)n2C -28.7%
Cc1nnc(SCC2=C(C(=O)O)N3C(=O)[C@@H](NC(=O)Cn4cnnn4)[C@H]3SC2)s1 13.2%
O=C(CCS(=O)(=O)c1ccc(Br)cc1)Nc1ccc(Cl)c(C(F)(F)F)c1 -24.9%
CCOC(=O)c1cccc(NC(=O)c2cn(-c3cccc(OC)c3)c(=O)c3ccccc23)c1 -7.4%
Fc1cc(F)c2ncc3c(-c4ccccc4)nn(-c4cccc(Cl)c4)c3c2c1 -2.26%
CC(C)OCCCNC(=O)C(=O)Nc1ccc2nc3n(c(=O)c2c1)CCCCC3 19.6%
Cc1cccc(Cn2c(=O)n(Cc3ccccc3)c(=O)c3oc4ccccc4c32)c1 -10.2%
Cc1ccccc1NC(=O)C1CCN(C(=O)c2cnn(-c3ccccc3)c2-n2cccc2)CC1 -10.1%
Cc1ccc(Sc2ccc(N3CCC(C(=O)Nc4ccc(C)c(F)c4)CC3)nn2)cc1 2.71%
Cc1cccc(-c2nc3nc(C)cc(NCc4ccccc4Cl)n3n2)c1 -37%
COc1cc(NC(=O)N(Cc2ccco2)C2CCN(C(C)=O)CC2)cc(OC)c1OC -0.295%
COc1ccc(-c2cc(C(F)(F)F)nc(-n3nc(C(F)(F)F)cc3C)n2)cc1 -23%
O=C(NCC(c1cccs1)S(=O)(=O)c1cccs1)c1ccc(Cl)cc1 (stereo unspecified) -19.2%
CC(C)c1cnc2c(c1SCc1cccc(F)c1)c(=O)n(C)c(=O)n2C -23.9%
Cc1ccc(-c2nc3nc(C)cc(C)n3c2Nc2ccc3c(c2)OCCO3)cc1 25.3%
CC(=O)N1CCc2cc(Br)cc(S(=O)(=O)N3CCC(C)CC3)c21 -12.7%
CCOc1ccc(NC(=O)Cn2c(=O)n(Cc3nc(-c4ccccc4)no3)c(=O)c3cc4c(cc32)OCO4)cc1 -4.78%
CC(=O)c1ccc(NC(=O)c2nc(-c3ccccc3)n(-c3ccc(Cl)cc3)n2)cc1 -12.7%
Cc1nc2nc(NC(=O)C(C)(C)C)[nH]n2c(=O)c1Cc1ccccc1 3.84%
Cc1ccc(Cn2ccn(CC(=O)Nc3c(C)cc(C)cc3C)c(=O)c2=O)cc1 -22.3%
O=c1[nH]c(=O)n([C@H]2C[C@H](O)[C@@H](CO)O2)cc1C(F)(F)F -15.3%
Cc1noc(-c2ccc(N3CCC(C)CC3)c([N+](=O)[O-])c2)n1 24.4%
COc1ccc(NS(=O)(=O)c2cc3c(cc2C)NC(=O)CO3)c(OC)c1 -19.5%
COc1cc(NC(=O)C2CCN(S(=O)(=O)c3ccc4c(c3)oc(=O)n4C)CC2)cc(OC)c1 -7.79%
O=C(CSC1=Nc2ccccc2C2=NC(Cc3ccccc3)C(=O)N12)Nc1ccccc1C(F)(F)F (stereo unspecified) -15.1%
Cc1cccc(CNC(=O)c2oc3c(c2C)-c2nn(Cc4cccc(Cl)c4)cc2CC3)c1 -15.4%
COC(=O)c1ccc2c(c1)N(CC(=O)Nc1cccc(Cl)c1C)C(=O)c1ccccc1S2 -18.1%
CC(C)NC(=O)Cn1c(=O)nc(-c2ccccc2F)c2cc(Cl)ccc21 -12.2%
CCc1ccc(OC(=O)CSc2nnc(-c3ccc(OC)c(OC)c3)o2)cc1 -6.78%
NC1=NCC2c3ccccc3Cc3ccccc3N12 (stereo unspecified) -7.85%
Cc1c2cnn(CC(=O)NC(C)C)c(=O)c2c(C)n1Cc1cccc(Cl)c1 -18.2%
COc1ccc(/C=C/c2nc(C#N)c(NCc3ccc(C)cc3)o2)cc1OC -13.5%
O=C(O)CCC(=O)O -1.93%
Cc1ccc(NC(=O)N2CCC3(CC2)Oc2ccccc2C(=O)N3Cc2ccc(F)cc2)cc1 42%
CCNC(=O)c1ccc2c(c1)sc1nc(-c3cccc(OC)c3)cn12 13.8%
CC(Oc1ccccc1)C(=O)Nc1cccc(-c2cn3cccnc3n2)c1 (stereo unspecified) -17.9%
CCOc1nc(-c2ccccc2)ccc1-c1noc(-c2ccc(C)cc2)n1 -12.6%
CCOc1ccc(NC(=O)CC2C(=O)N(c3ccccc3)C(=O)N2CCc2sccc2C)cc1 (stereo unspecified) -29.8%
O=C(Cn1cc(SCc2cccc(Cl)c2)c2ccccc21)N1CCCCC1 3.09%
Cc1c(C(=O)OC2CCC(C)CC2)[nH]c2c1C(=O)CC(c1ccc(N(C)C)cc1)C2 (stereo unspecified) -12.3%
